Experimental data reported in article PMC6249969.
These are yes or no findings as the source states them, for the method shown. Binding seen in cells or lysates may run through a third protein. Some results given as binding are weak or reduced against the parent protein; the word gives no strength. Sequences can lack the tags named with a protein.

Protein sequences, listed by entry. Tags and fused reporters are not part of them.
UniProt Q9SJM0: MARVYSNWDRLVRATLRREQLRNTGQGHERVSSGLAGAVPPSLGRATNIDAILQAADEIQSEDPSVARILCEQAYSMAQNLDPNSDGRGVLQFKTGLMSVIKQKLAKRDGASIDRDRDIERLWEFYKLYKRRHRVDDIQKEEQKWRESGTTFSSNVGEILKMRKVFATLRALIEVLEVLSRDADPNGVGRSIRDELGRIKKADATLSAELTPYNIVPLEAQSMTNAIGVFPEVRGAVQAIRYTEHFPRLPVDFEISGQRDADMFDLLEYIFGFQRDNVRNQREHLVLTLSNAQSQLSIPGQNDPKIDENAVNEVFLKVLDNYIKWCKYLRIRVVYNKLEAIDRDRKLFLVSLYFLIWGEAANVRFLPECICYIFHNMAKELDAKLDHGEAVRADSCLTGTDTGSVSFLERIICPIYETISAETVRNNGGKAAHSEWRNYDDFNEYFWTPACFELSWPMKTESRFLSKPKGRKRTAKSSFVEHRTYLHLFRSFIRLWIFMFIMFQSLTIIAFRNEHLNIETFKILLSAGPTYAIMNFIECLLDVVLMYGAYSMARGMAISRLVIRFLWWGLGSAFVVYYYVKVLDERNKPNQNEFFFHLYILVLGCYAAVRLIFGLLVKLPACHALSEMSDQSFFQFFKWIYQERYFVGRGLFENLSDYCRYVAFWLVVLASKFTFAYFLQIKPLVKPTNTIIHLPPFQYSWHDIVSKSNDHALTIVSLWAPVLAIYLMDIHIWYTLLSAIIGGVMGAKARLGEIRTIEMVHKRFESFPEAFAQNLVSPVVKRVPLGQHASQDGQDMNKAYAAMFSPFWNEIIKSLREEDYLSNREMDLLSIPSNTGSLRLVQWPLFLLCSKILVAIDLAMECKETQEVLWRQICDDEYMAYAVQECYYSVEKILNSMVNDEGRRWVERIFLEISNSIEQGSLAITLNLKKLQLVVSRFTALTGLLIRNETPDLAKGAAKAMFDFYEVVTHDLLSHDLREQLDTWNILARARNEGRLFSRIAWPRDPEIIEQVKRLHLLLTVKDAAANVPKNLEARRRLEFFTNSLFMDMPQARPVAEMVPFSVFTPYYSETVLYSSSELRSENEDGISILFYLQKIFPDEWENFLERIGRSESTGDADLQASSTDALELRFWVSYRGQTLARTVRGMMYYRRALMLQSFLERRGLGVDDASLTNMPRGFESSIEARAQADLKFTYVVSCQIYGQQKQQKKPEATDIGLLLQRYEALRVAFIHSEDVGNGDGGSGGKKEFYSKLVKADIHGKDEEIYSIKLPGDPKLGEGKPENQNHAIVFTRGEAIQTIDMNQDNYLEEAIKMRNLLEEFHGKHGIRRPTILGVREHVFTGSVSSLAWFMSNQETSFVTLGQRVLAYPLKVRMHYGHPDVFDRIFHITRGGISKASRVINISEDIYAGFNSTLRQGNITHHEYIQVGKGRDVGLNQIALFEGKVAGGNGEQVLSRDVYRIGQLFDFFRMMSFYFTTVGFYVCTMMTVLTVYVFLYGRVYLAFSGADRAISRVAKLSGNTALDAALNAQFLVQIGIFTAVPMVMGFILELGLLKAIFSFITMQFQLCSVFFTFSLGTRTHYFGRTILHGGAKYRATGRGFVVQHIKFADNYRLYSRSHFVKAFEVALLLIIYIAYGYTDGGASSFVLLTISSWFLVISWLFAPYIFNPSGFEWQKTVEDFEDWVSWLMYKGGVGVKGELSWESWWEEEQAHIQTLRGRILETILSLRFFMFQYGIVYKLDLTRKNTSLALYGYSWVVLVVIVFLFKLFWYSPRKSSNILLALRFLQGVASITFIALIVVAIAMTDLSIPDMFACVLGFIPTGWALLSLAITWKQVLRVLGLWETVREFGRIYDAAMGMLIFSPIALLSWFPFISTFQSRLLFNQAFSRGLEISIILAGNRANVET

Molecular target: GLUCAN SYNTHASE-LIKE 8 (GSL8) fused to YFP (Arabidopsis thaliana) (UniProt Q9SJM0)
Test: FRET or BRET; FRET by acceptor photobleaching in infiltrated N. bentamiana leaves, 3 dpi; GSL8-YFP (acceptor) with candidate interactor fused to CFP (donor)

binding: binds
B1: stomatal cytokinesis-defective 1 (SCD1) fused to CFP (protein, UniProt Q8RXA7 1-1187)
chain: MGRIFEYFVVCGLGPEMRTVDGDLGFHGMQTFYLPALLDQFPPTDQSPYPAPPPQLPTCVLPAGVEFHSSGFVSSDPASFPRSYPIVLTEGDGSKIFVSCIAFRDRVCEDIIEAYRLPPNTYADKCICLVSHAPNFRVLRNSLEEIFVLCFSSEGSCKPLWDIIAYMVSNVPLPTPGKDRVLFAVENCLLSVEAPPEDSLPQADISLQPLVQCLDVDNLIKLFTSVLVERRILIRSNKYSLLTLVSESICHLIYPFRWLQVYIPLLFFSGVDYIDAPTPYMMGLHSDVDTSNLAMDGVVVVDLDINQITTSEEIPQIPEPEFSTLRNDILKLLHPNVVAIDQLKGFGNSVEQCPKSLSKPWGEDHDLQLRVIFLKCFASILGGYRNFIENKVFSTDAFLKRRSRSTNQPPEPMLVQFLGSFAFLDYLERRLSSDEKSTNLLEKLQDAVGRGQDAMSILPKSSMEPEIITIAEPEVEESATRYTYDRFPASVRSEEQEEKRKQILAAASGALESNGRHPPSSPPGKNTKEDNFSSMERAAERERMVLDIQVKLQGLWLRLLKLGSDEDPLSSFEYGTILALIESDAEGIGGSGFIECIREHLYSGWHGQLSEEQFIAVKELLKMAVGRAASRSDLSTVRDALEVSAEMFKKDANNVSDYVQRHLISIPIWEELRFWEGYFEYLMEQPANESVNYATLVTARLIIVASHMAGLGLPDTEAWNMIETIAEKQKLGYKLLIKLRGFLSHVQQLRVGYWGASSFKQQAISAGLPSPRPKDVSVSDETQQPSEASGRSWVQSMFSRDTASRANSFSRVRKWVSDNASSDITAAAQKKIQTNVRVLKGHGGAVTALHSVTRREVCDLVGDREDAGFFISGSTDCLVKIWDPSLRGSELRATLKGHTGTVRAISSDRGKIVSGSDDLSVIVWDKQTTQLLEELKGHDSQVSCVKMLSGERVLTAAHDGTVKMWDVRTDMCVATVGRCSSAILSLEYDDSTGILAAAGRDTVANIWDIRSGKQMHKLKGHTKWIRSIRMVEDTLITGSDDWTARVWSVSRGSCDAVLACHAGPVQSVEYSPFDKGIITGSADGLLRFWENDEGGIKCVKNITLHSSSILSINAGENWLGIGAADNSMSLFHRPSNAGTKVSGWQLYRVPQRTAAVVRCVASDLERKRICSGGRNGVLRLWDATINI
